# Laboratory results as given in PubChem BioAssay AID1347073 (National Center for Advancing Translational Sciences (NCATS), 2019).
# The campaign covered roughly 45,000 compounds. About 200 (0.44%) were called active. About 7% were inconclusive and are not listed. The call rests on the fitted dose curve; in most records, active means well fitted activation curve with a large enough effect; inconclusive means small, poorly fitted or top-dose-only effect; inactive means no such curve, though single readings can be large or run the other way. The list shows a part of the results.
# Assay: qHTS of TDP-43 Inhibitors: NCGC Sytravon Library Screen; further: 0% is about no effect; nearly all actives have a fitted effect of over 55% in size
# Details: yeast TDP-43 toxicity rescue, BacTiter-Glo growth, 24 h; series mostly up to 46.1 µM; growth rescue (activation): at the top concentration
# Summary of the method: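 TDP-43-expressing yeast, pregrown in raffinose, seeded at OD600 0.02 in galactose medium with compound for 24 hr at 30 deg C. Growth read by BacTiter-Glo luminescence, so rescue of toxicity appears as activation.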
row,Structure (SMILES),growth rescue (activation)
1,CC(=O)NC(c1ccccc1)c1nc(-c2cccc(CO)c2)cs1 (configuration not stated),inactive: 23.9%
2,CN(C)c1ccc(C(=O)OCC(=O)N2CCCC2)cc1,inactive: -5.95%
3,CC(C)(C)c1ccc(C(=O)NCCCn2ccnc2)cc1,inactive: -1.08%
4,CC(C)CCNC(=O)C1CCCN(S(=O)(=O)c2ccc(-n3cnnn3)cc2)C1 (configuration not stated),inactive: -5.43%
5,CC(/C=C/c1ccco1)=N\NC(=O)COc1ccc(C)c(C)c1,inactive: 6.36%
6,Cc1cccc(-n2cc(-c3ccccc3)[nH]c2=S)c1,inactive: 18.4%
7,CCN(CC)S(=O)(=O)c1ccc(O)c(C(=O)OCC(=O)NC23CC4CC(CC(C4)C2)C3)c1,inactive: 9.95%
8,COc1ccc(Cl)c(-c2cc(C(=O)Nc3ccc(C)c(NS(C)(=O)=O)c3)[nH]n2)c1,inactive: 15.3%
9,CC(NC(=O)/C(C#N)=C/c1ccc(N2CCOCC2)cc1)c1ccccc1 (configuration not stated),inactive: 12.5%
10,O=C(COC(=O)/C=C/c1cccs1)NC1CC1,inactive: -7.73%
11,CCn1c(CN2CCOCC2)nnc1SCC(=O)Nc1ccc(C)cc1,inactive: 1.07%
12,CC(C)(O)C#Cc1ccc(CN2CCN(Cc3ccsc3)C(CCO)C2)cc1 (configuration not stated),inactive: 2.67%
13,Cc1ccc(N2Cc3ccccc3C2=S)cc1,inactive: 31.7%
14,CCCc1c(O)nc(SCC(=O)O)[nH]c1=O,inactive: -4.31%
15,O=C(NC1CCN(S(=O)(=O)c2ccccc2C(F)(F)F)CC1)c1ccco1,inactive: 16.3%
16,COc1ccc(OC)c(NC(=O)C(=O)NCCC2=CCCCC2)c1,inactive: -16.3%
17,CCC(C)c1ccccc1NC(=O)CN(C)CC(=O)Nc1ccccc1SC (configuration not stated),inactive: 4.38%
18,COc1cccc(-c2nc3c(c(=O)[nH]c(=O)n3Cc3ccccc3)n2CCO)c1OC(F)F,inactive: -6.31%
19,O=C(CNC(=O)c1cccc(Br)c1)N/N=C/c1ccc2c(c1)OCO2,inactive: 2.12%
20,COc1cccc(OC)c1OCCOCCN1CCN(C)CC1,inactive: -2.87%
21,CN(C)c1cccc(CNC(=O)c2csc(COCCO)n2)c1,inactive: 6.6%
22,COc1ccccc1C(O)c1ncc(-c2ccc(Cl)cc2)[nH]1 (configuration not stated),inactive: 3.8%

row,Structure (SMILES),growth rescue (activation)
1,CC1(C)CC(=O)C(N=Nc2c(Cl)cc(Cl)cc2Cl)=C(O)C1,inactive: -10.3%
2,CC1=C(C#N)C(c2ccccc2O)C(C#N)=C(C)N1,inactive: 3.17%
3,Cc1occc1-c1nnc(SCC(=O)c2cc3ccccc3oc2=O)o1,inactive: -22.3%
4,O=C(N/N=C/c1cccc(NC(=O)c2ccc(Cl)cc2)c1)c1cccc(O)c1,inactive: 5.64%
5,Cc1cc(Br)ccc1NC(=O)c1cc2c(s1)-c1ccccc1SC2,inactive: 18.1%
6,COc1ccc(CN(C)C(=O)c2cc(-c3ccc(C)cc3C)nc3ccccc23)c(OC)c1OC,inactive: 20.5%
7,CCC(C)C(=O)Nc1nnc(SCC(=O)Nc2ccc(F)cc2)s1 (configuration not stated),inactive: -1.1%
8,Cc1ccc(S(=O)(=O)N/N=C(\c2ccccc2)c2cccnc2)cc1,inactive: 4.87%
9,COc1ccc(NC(=S)N2CCN(C(=O)c3ccco3)CC2)cc1,inactive: 14.3%
10,CCOc1cc(S(=O)(=O)n2ccnc2)ccc1Cl,inactive: -3.19%
11,O=C(NN1C(=O)C2C(c3ccccc3)C=CC(c3ccccc3)C2C1=O)c1ccccc1 (configuration not stated),inactive: -0.0621%
12,CC(=O)N/N=C(\C)CC(=O)Nc1ccc2c(c1)OCCO2,inactive: 2.13%
13,Cn1cc(CN2CCC(n3nccc3NC(=O)C3CCCC3)CC2)cn1,inactive: 19.9%
14,Cc1cccc(NC(=S)NC23CN4CN(CN(C4)C2)C3)c1,inactive: 5.14%
15,COc1cccc(CN2CCCC(C(=O)c3ccc4c(c3)OCO4)C2)c1OC (configuration not stated),inactive: 7.99%
16,CCC(=O)Nc1ccc(NC(=O)c2ccc3c(c2)OCO3)cc1,inactive: -11.3%
17,Cc1ccc(-c2csc(C3=C(O)CN(NC(=O)c4ccc([N+](=O)[O-])cc4)C3=N)n2)cc1,inactive: -1.11%
18,Cn1c(Cc2ccccc2)nnc1SCc1nc2ccccc2c(=O)[nH]1,inactive: -8.39%
19,NS(=O)(=O)c1ccc(NC(=O)/C(=C/c2ccncc2)NC(=O)c2ccccc2)cc1,inactive: -4.83%
20,COc1ccc(C2c3c(-c4ccccc4O)n[nH]c3C(=O)N2Cc2ccco2)cc1 (configuration not stated),inactive: 0.764%
21,CCC(=O)N1CCc2cc(Br)c(S(=O)(=O)CCC(=O)NCCOC)cc21,inactive: 3.94%
22,Cc1ccc(C(=O)NC(NC(=O)c2ccc(C)cc2)c2cccc([N+](=O)[O-])c2)cc1,inactive: 8.84%

row,Structure (SMILES),growth rescue (activation)
1,CCCCn1c(-c2ccc(S(=O)(=O)N3CCOCC3)cc2)csc1=Nc1ccccc1,inactive: -5.83%
2,Cc1ccc(S(=O)(=O)NCCNC(=O)c2nonc2N)cc1,inactive: 23.4%
3,CCOC(=O)NC(=O)/C(C#N)=C\NNc1ncc(C(F)(F)F)cc1Cl,inactive: -18.5%
4,O=C(/C=C/c1ccc2c(c1)OCO2)Nc1nc2ccccc2s1,inactive: -8.71%
5,Cc1nonc1N1CCN(Cc2cn[nH]c2-c2ccc3c(c2)OCO3)CC1,inactive: 11.6%
6,CCOc1cc(N2CCOCC2)c(OCC)cc1NCC(=O)N1CCN(Cc2ccccc2)CC1,inactive: 1.99%
7,O=C(O)CC1S/C(=N\N=C/c2ccccc2O)N(c2ccc(O)cc2)C1=O (configuration not stated),inactive: -0.588%
8,COc1cc(Cn2c(-c3ccc(O)c(OC)c3)nc3ccccc32)ccc1O,inactive: -15%
9,CC1(C(=O)NCc2cccnc2)CCN1C(=O)Cc1cccs1 (configuration not stated),inactive: -1.65%
10,O=C1NC2(CCCCC2)C(=O)N1Cc1cccc(C(F)(F)F)c1,inactive: 1.92%
11,CCOC(=O)C(=O)N1CCC(C(=O)OC)CC1,inactive: 11.5%
12,Cc1ccc(NC(=O)CSc2nc(N)cc(=O)[nH]2)cc1S(=O)(=O)N1CCOCC1,inactive: 24.1%
13,CCc1ccc(OCC(=O)N/N=C(\C)c2ccc3c(c2)OCCO3)cc1,inactive: 9.15%
14,CN(C)CC(O)COC(c1ccccc1)c1ccccc1 (configuration not stated),inactive: -15.2%
15,NS(=O)(=O)c1ccc(NC(=S)Nc2cc(Cl)c(Cl)cc2Cl)cc1,inactive: 8.43%
16,O=C(COC(=O)/C=C/c1ccc([N+](=O)[O-])cc1)NCc1ccccc1,inactive: 3.61%
17,COc1ccc(C(=O)C2CCCN(Cc3ccc4c(c3)OCCO4)C2)cc1F (configuration not stated),inactive: 26.3%
18,O=C(NO)c1ccccc1C(F)(F)F,inactive: 3.2%
19,O=C(CCCN1C(=O)/C(=C\c2cccs2)SC1=S)Nc1cccc(C(=O)O)c1,inactive: -0.838%
20,CN(C(=O)c1ccc(=O)n(Cc2ccc(Cl)cc2)c1)c1ccccc1,inactive: -1.99%
21,Cc1c(C(=O)N/N=C/c2ccc(N3CCOCC3)cc2)nc2ccccn12,inactive: 3.22%
22,CCc1cccc(C)c1Nc1c(-c2ccc(N(C)C)cc2)nc2ncccn12,inactive: -18.8%

row,Structure (SMILES),growth rescue (activation)
1,Cn1cccc1/C=N/NC(N)=S,inactive: 8.52%
2,CCc1ccc(CNC(=O)Cc2ccc(NC(=O)C3=C(C)OCCS3)cc2)cc1,inactive: 3.03%
3,Cc1ccc(N(C(=O)c2snc(C(N)=O)c2N)C(CC(C)C)C(=O)NC2CCCC2)cc1 (configuration not stated),inactive: -7.47%
4,O=C(CN1C(=O)C2CCCCC2C1=O)N1CCN(c2ncccn2)CC1 (configuration not stated),inactive: -19.5%
5,Cc1noc(NS(=O)(=O)c2ccc(N/C=C\C(=O)c3ccc(Br)cc3)cc2)c1C,inactive: 22%
6,O=C(NC1CCCCCC1)C(=S)NCCc1ccccc1,inactive: 13.7%
7,CC1CCC(NC(=O)C2(C)Cc3ccccc3C(=O)N2Cc2ccccc2Cl)CC1 (configuration not stated),inactive: 2.34%
8,NNC(=O)c1ccc(COc2cccc3cccnc23)cc1,inactive: -10.3%
9,Cc1nnc(SCC(=O)N2CCN(S(=O)(=O)c3ccccc3)CC2)[nH]c1=O,inactive: 8.98%
10,Nc1nc(SC23CC4CC(CC(C4)C2)C3)ns1,inactive: 5.52%
11,CCCc1ccc(OCc2ccc(C(=O)NN)o2)c(OC)c1,inactive: 12.5%
12,O=C(CSCc1cccc(Cl)c1)Nc1ccccc1-c1ccccc1,inactive: 16.7%
13,CCc1nc2c(OCc3ccc(OC)cc3)cccn2c1N(C)C(=O)C(C)C,inactive: -1.38%
14,O=C(NCc1ccco1)C1CCCN1C(=O)Nc1ccccc1[N+](=O)[O-] (configuration not stated),inactive: 10.6%
15,CCOCCCNC(=O)c1ccc(N2CCOCC2)c(NS(=O)(=O)c2ccc(OC)cc2)c1,inactive: -5.09%
16,COc1cccc(N(C(=O)c2ccco2)C(C(=O)NC2CCCC2)c2cccnc2)c1 (configuration not stated),inactive: 8.94%
17,Cc1nn(Cc2ccc(Cl)cc2)c(C)c1NC(=O)c1cc(C(C)C)on1,inactive: 12.4%
18,CS(=O)(=O)NCCCc1ccccc1,inactive: 24%
19,CCN(C(=O)COC(=O)c1cc(-c2ccccc2)nc2c1c(C)nn2-c1ccccc1)C1CCS(=O)(=O)C1 (configuration not stated),inactive: 10.4%
20,Cc1ccc(-c2csc3nc(SCC(=O)N(C)C)n(Cc4ccccc4)c(=O)c23)cc1,inactive: 3.4%
21,CN1CCN(C(=O)CC2C(=O)NCCN2Cc2ccc(-c3ccccc3)cc2)CC1 (configuration not stated),inactive: 7.61%
22,Cc1cc(C)cc(Cn2c3ccc(NC(=S)NC4CCCCC4)cc3c(=O)n2C)c1,inactive: -3.71%

row,Structure (SMILES),growth rescue (activation)
1,O=C(Cn1ccc2ccccc21)Nc1ccc2c(c1)OCO2,inactive: 7.8%
2,CC(C)CC(=O)Nc1ncc([N+](=O)[O-])s1,inactive: 12.3%
3,CC(NC(=O)C1CCN(S(=O)(=O)c2ccc(Br)s2)CC1)c1ccccc1 (configuration not stated),inactive: 20%
4,CC(/C=C/c1ccc(OCc2ccccc2)cc1)=N\O,inactive: 0.252%
5,COc1cccc2c1O/C(=N\O)C(C(=O)Nc1cccc(Br)c1)C2 (configuration not stated),inactive: 8.31%
6,O=C(c1ccccc1F)N1CCN(c2ccc([N+](=O)[O-])c(N3CCOCC3)c2)CC1,inactive: 15.3%
7,CCCCCCCOC(=O)C[N+](C)(C)CCOC1CC2CCC1(C)C2(C)C (configuration not stated),inactive: -69.9%
8,CCC(C(=O)OCC(=O)Nc1cc(OC)ccc1OC)c1ccccc1 (configuration not stated),inactive: 5.02%
9,CCc1nnc(NC(=O)c2nc(S(=O)(=O)Cc3ccccc3)ncc2Cl)s1,inactive: 18.6%
10,O=C(N/N=C/c1cc2c(cc1Cl)OCO2)c1ccc2c(c1)OCCO2,inactive: 6.34%
11,COc1cc(OC)cc(-c2noc(-c3csc([C@@H]4O[C@H](CO)[C@H](O)[C@H](O)[C@H]4O)n3)n2)c1,inactive: -11%
12,COc1ccc(NC(=O)c2ccccc2NS(=O)(=O)c2ccc(CNC(C)=O)cc2)c(OC)c1,inactive: -3.09%
13,COC(=O)c1cc(CNC(=O)c2ccc(O)c(Cl)c2)ccc1OC,inactive: -9.91%
14,CC(C)c1ccc(C(=O)OC2CCOC2=O)cc1 (configuration not stated),inactive: 15.8%
15,COc1ccc(NC(=O)COC(=O)C2CC3C=CC2C3)cc1 (configuration not stated),inactive: 18.8%
16,CC1CC(C)CN(S(=O)(=O)c2ccc(NC(=O)CN3CCCCCC3)cc2)C1 (configuration not stated),inactive: 19.4%
17,COCCNC(=O)CCc1c(C)nc2nc(-c3cc(OC)cc(OC)c3)nn2c1C,inactive: 15.4%
18,Cn1nnc(NC(=S)NC(=O)c2cccs2)n1,inactive: 3.41%
19,COc1ccc(CNC(=O)C/C(C)=N/NC(=O)COc2ccc(Br)cc2)cc1,inactive: 12.7%
